Source: the supplement of paper PMC8728848
The other results are listed elsewhere or left out.

What was measured:
Test in all cases: glycan array binding signal (z-score within array); higher = stronger binding
Settings in all cases: glycan notation: IUPAC condensed, linker removed
[1] = target: Man(a1-2)Man(a1-6)[Man(a1-3)]Man(a1-6)[Man(a1-2)Man(a1-2)Man(a1-3)]Man(b1-4)GlcNAc(b1-4)GlcNAc
Procedure, shortened: (§1)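 From the Consortium for Functional Glycomics database, 3228 arrays were curated, keeping only those whose protein sequence was available. Binding is given as a within-array Z-score averaged across arrays sharing a protein sequence and across linkers. Negative Z-scores can be read as non-binding.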

Man(a1-3)[Man(a1-6)]Man = target: Man(a1-3)[Man(a1-6)]Man
Procedure, shortened: as §1

[2] = target: Man(a1-3)[Man(a1-6)]Man(a1-6)[Man(a1-2)Man(a1-3)]Man(b1-4)GlcNAc(b1-4)GlcNAc
Procedure, shortened: as §1

[3] = target: Man(a1-3)[Man(a1-6)]Man(a1-6)[Man(a1-3)]Man
Procedure, shortened: as §1

[4] = target: Man(a1-3)[Man(a1-6)]Man(a1-6)[Man(a1-3)]Man(b1-4)GlcNAc(b1-4)GlcNAc
Procedure, shortened: as §1

[5] = target: Man(a1-3)[Man(a1-6)]Man(b1-4)GlcNAc(b1-4)GlcNAc
Procedure, shortened: as §1

[6] = target: Man(a1-3)[Man(a1-6)]Man(b1-4)GlcNAc(b1-4)[Fuc(a1-6)]GlcNAc
Procedure, shortened: as §1

Man(a1-6)Man = target: Man(a1-6)Man
Procedure, shortened: as §1

Man(b1-4)GlcNAc = target: Man(b1-4)GlcNAc
Procedure, shortened: as §1

MurNAc(b1-4)GlcNAc = target: MurNAc(b1-4)GlcNAc
Procedure, shortened: as §1

Neu5Ac(a2-3)Gal = target: Neu5Ac(a2-3)Gal
Procedure, shortened: as §1

[7] = target: Neu5Ac(a2-3)Gal(b1-3)GalNAc
Procedure, shortened: as §1

[8] = target: Neu5Ac(a2-3)Gal(b1-3)GalNAc(b1-3)Gal(a1-4)Gal(b1-4)Glc
Procedure, shortened: as §1

[9] = target: Neu5Ac(a2-3)Gal(b1-3)GalNAc(b1-3)Gal(b1-4)GlcNAc
Procedure, shortened: as §1

[10] = target: Neu5Ac(a2-3)Gal(b1-3)GalNAc(b1-4)[Neu5Ac(a2-3)]Gal(b1-4)Glc
Procedure, shortened: as §1

[11] = target: Neu5Ac(a2-3)Gal(b1-3)GalNAc(b1-4)[Neu5Ac(a2-8)Neu5Ac(a2-3)]Gal(b1-4)Glc
Procedure, shortened: as §1

[12] = target: Neu5Ac(a2-3)Gal(b1-3)GalNAc6S
Procedure, shortened: as §1

[13] = target: Neu5Ac(a2-3)Gal(b1-3)GlcNAc
Procedure, shortened: as §1

[14] = target: Neu5Ac(a2-3)Gal(b1-3)GlcNAc(b1-2)Man
Procedure, shortened: as §1

[15] = target: Neu5Ac(a2-3)Gal(b1-3)GlcNAc(b1-2)Man(a1-3)[GlcNAc(b1-4)][Neu5Ac(a2-3)Gal(b1-3)GlcNAc(b1-2)Man(a1-6)]Man(b1-4)GlcNAc(b1-4)GlcNAc
Procedure, shortened: as §1

[16] = target: Neu5Ac(a2-3)Gal(b1-3)GlcNAc(b1-2)Man(a1-3)[Neu5Ac(a2-3)Gal(b1-3)GlcNAc(b1-2)Man(a1-6)]Man(b1-4)GlcNAc(b1-4)GlcNAc
Procedure, shortened: as §1

[17] = target: Neu5Ac(a2-3)Gal(b1-3)GlcNAc(b1-3)Gal(b1-3)GlcNAc
Procedure, shortened: as §1

[18] = target: Neu5Ac(a2-3)Gal(b1-3)GlcNAc(b1-3)Gal(b1-4)GlcNAc
Procedure, shortened: as §1

[19] = target: Neu5Ac(a2-3)Gal(b1-3)GlcNAc(b1-3)GalNAc
Procedure, shortened: as §1

[20] = target: Neu5Ac(a2-3)Gal(b1-3)GlcNAc(b1-4)Gal(b1-4)Glc
Procedure, shortened: as §1

[21] = target: Neu5Ac(a2-3)Gal(b1-3)GlcNAc(b1-6)GalNAc
Procedure, shortened: as §1

[22] = target: Neu5Ac(a2-3)Gal(b1-3)GlcNAc6S
Procedure, shortened: as §1

[23] = target: Neu5Ac(a2-3)Gal(b1-3)[Fuc(a1-4)]GlcNAc
Procedure, shortened: as §1

[24] = target: Neu5Ac(a2-3)Gal(b1-3)[Fuc(a1-4)]GlcNAc(b1-3)Gal(b1-3)[Fuc(a1-4)]GlcNAc
Procedure, shortened: as §1

[25] = target: Neu5Ac(a2-3)Gal(b1-3)[Fuc(a1-4)]GlcNAc(b1-3)Gal(b1-4)[Fuc(a1-3)]GlcNAc
Procedure, shortened: as §1

[26] = target: Neu5Ac(a2-3)Gal(b1-3)[GlcNAc(b1-6)]GalNAc
Procedure, shortened: as §1

[27] = target: Neu5Ac(a2-3)Gal(b1-3)[Neu5Ac(a2-3)Gal(b1-4)]GlcNAc
Procedure, shortened: as §1

[28] = target: Neu5Ac(a2-3)Gal(b1-3)[Neu5Ac(a2-6)]GalNAc
Procedure, shortened: as §1

[29] = target: Neu5Ac(a2-3)Gal(b1-3)[Neu5Ac(a2-6)]GlcNAc(b1-3)[Fuc(a1-3)[Gal(b1-4)]GlcNAc(b1-6)]Gal(b1-4)Glc
Procedure, shortened: as §1

[30] = target: Neu5Ac(a2-3)Gal(b1-3)]Neu5Ac(a2-3)Gal(b1-4)]GlcNAc
Procedure, shortened: as §1

Neu5Ac(a2-3)Gal(b1-4)Glc = target: Neu5Ac(a2-3)Gal(b1-4)Glc
Procedure, shortened: as §1

[31] = target: Neu5Ac(a2-3)Gal(b1-4)GlcNAc
Procedure, shortened: as §1

[32] = target: Neu5Ac(a2-3)Gal(b1-4)GlcNAc(b1-2)Man
Procedure, shortened: as §1

B1: LTL (Lotus tetragonolobus), P19664 (protein)
chain: VSFNYTEFKDDGSLILQGDAKIWTDGRLAMPTDPLVNNPKTTRSAGRALYATPVPIWDSATGNVASFVTSFNFLFVIRELKYTPTDGLVFFLAPVGTEIPSGSTGGFLGIFDGSNGFNQFVAVEFDSYHNIWDPKSLRSSHVGIDVNSIMSLKAVNWNRVSGSLEKATIIYDSQTNILSVVMTSQNGQITTIYGTIDLKTVLPEKVSVGFSATTGNPEREKHDIYSWSFTSTLKEPEEQA
glycan array binding signal (z-score) [1]: -0.278
glycan array binding signal (z-score) (Man(a1-3)[Man(a1-6)]Man): -0.207
glycan array binding signal (z-score) [2]: 0.802
glycan array binding signal (z-score) [3]: 0.02
glycan array binding signal (z-score) [4]: -0.065
glycan array binding signal (z-score) [5]: -0.159
glycan array binding signal (z-score) [6]: -0.407
glycan array binding signal (z-score) (Man(a1-6)Man): -0.141
glycan array binding signal (z-score) (Man(b1-4)GlcNAc): -0.138
glycan array binding signal (z-score) (MurNAc(b1-4)GlcNAc): -0.125
glycan array binding signal (z-score) (Neu5Ac(a2-3)Gal): -0.202
glycan array binding signal (z-score) [7]: -0.29
glycan array binding signal (z-score) [8]: -0.072
glycan array binding signal (z-score) [9]: -0.26
glycan array binding signal (z-score) [10]: -0.094
glycan array binding signal (z-score) [11]: -0.292
glycan array binding signal (z-score) [12]: -0.292
glycan array binding signal (z-score) [13]: -0.107
glycan array binding signal (z-score) [14]: 0.037
glycan array binding signal (z-score) [15]: -0.354
glycan array binding signal (z-score) [16]: -0.099
glycan array binding signal (z-score) [17]: -0.076
glycan array binding signal (z-score) [18]: -0.318
glycan array binding signal (z-score) [19]: -0.199
glycan array binding signal (z-score) [20]: -0.188
glycan array binding signal (z-score) [21]: 0.17
glycan array binding signal (z-score) [22]: 0.289
glycan array binding signal (z-score) [23]: 0.005
glycan array binding signal (z-score) [24]: 0.038
glycan array binding signal (z-score) [25]: -0.135
glycan array binding signal (z-score) [26]: -0.138
glycan array binding signal (z-score) [27]: -0.084
glycan array binding signal (z-score) [28]: -0.277
glycan array binding signal (z-score) [29]: -0.123
glycan array binding signal (z-score) [30]: -0.203
glycan array binding signal (z-score) (Neu5Ac(a2-3)Gal(b1-4)Glc): -0.023
glycan array binding signal (z-score) [31]: -0.157
glycan array binding signal (z-score) [32]: 0.022
